Hit rate of the full screen: of about 220,000 compounds, about 16,000 (7.3%) were called active. Inconclusive results, whose numbers are uncertain, are shown with a selection of clear calls. Calls follow the shape of the dose curve; as a rule, active = well fitted inhibition curve with a large enough effect (not every such curve was filed as active); inconclusive = small, poorly fitted or top-dose-only effect, or another doubt; inactive = no such curve, though single readings can be large or run the other way. Potencies of inconclusive entries are left out as doubtful fits. Square brackets hold non-standard residues; d marks the D form. Peptide text beside a SMILES is read from it. ξ: configuration not given here. ξV = CC(C)C(N)C(=O)O
Target: Aldehyde dehydrogenase 1A1 (Homo sapiens) (UniProt P00352)
UniProt P00352, sequence (P00352 whole entry, looked up): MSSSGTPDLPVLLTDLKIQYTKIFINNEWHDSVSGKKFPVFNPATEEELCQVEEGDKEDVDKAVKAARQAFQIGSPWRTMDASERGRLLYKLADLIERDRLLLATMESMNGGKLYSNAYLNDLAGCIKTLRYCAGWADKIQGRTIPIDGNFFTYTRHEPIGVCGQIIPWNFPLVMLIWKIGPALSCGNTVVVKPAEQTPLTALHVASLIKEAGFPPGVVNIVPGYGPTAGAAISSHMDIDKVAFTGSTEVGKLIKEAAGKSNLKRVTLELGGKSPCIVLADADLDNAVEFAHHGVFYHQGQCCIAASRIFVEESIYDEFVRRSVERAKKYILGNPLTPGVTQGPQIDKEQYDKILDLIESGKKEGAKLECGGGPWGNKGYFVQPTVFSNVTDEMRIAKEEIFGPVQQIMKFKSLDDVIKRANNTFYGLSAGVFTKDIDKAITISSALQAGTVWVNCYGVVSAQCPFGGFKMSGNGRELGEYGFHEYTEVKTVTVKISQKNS
Experiment: qHTS Assay for Inhibitors of Aldehyde Dehydrogenase 1 (ALDH1A1);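 as to activity, negative = inhibition: plate controls were no enzyme wells and a reference inhibitor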
Settings: Purified ALDH1A1, NADH fluorescence, propionaldehyde substrate; series mostly up to 75.3 µM
Potency is read from the fitted curve at half-maximal effect; tags tell the direction and shape of the fitted curve.

SMILES	Potency	activity, negative = inhibition
CCOc1cc(-c2cc(-c3ccc(C)cc3)nc(N)c2C#N)ccc1O	inactive	–
CCOC(=O)Cn1c(C)cc(COC)c(C#N)c1=O	inconclusive [inhibitor, single point]	–
Cc1csc(NC(=O)c2cc3c(s2)-c2ccccc2OC3)n1	inconclusive [inhibitor, partial curve]	–
Cc1cc2cc(C(c3nnnn3Cc3ccco3)N3CCc4ccccc4C3)c(=O)[nH]c2cc1C (stereo unspecified)	inconclusive [inhibitor, partial curve]	–
CCOC(=O)N1CCC(=NNC(=O)c2ccccc2F)CC1	inconclusive [inhibitor, partial curve]	–
O=C(/C=C/Nc1cccc(O)c1)c1ccccc1	inconclusive [inhibitor, single point]	–
Cc1ccc(NC(=O)CN2C(=O)S/C(=C/c3ccc(-c4cccc(C(=O)O)c4)o3)C2=O)cc1	inactive	–
O=C(c1ccc(Cl)c(S(=O)(=O)N2CCCC2)c1)N1CCN(c2ccccc2F)CC1	inconclusive [inhibitor, single point]	–
COCCCn1nnnc1SCC(=O)N1c2ccccc2CC1C (stereo unspecified)	inconclusive [inhibitor, partial curve, poor fit]	–
CCOC(=O)/C(N=Nc1c(C)n(C)n(-c2ccccc2)c1=O)=C(/O)c1ccccc1	inactive	–
Cc1cc(C)c2nc(-c3ccccn3)cc(C(=O)Nc3ccc(S(=O)(=O)Nc4cc(C)on4)cc3)c2c1	inconclusive [inhibitor, single point]	–
Cc1ccsc1C(=O)OCC(=O)Nc1cccc(S(=O)(=O)N2CCOCC2)c1	inconclusive [inhibitor, single point]	–
COC1=CC(=O)C=C(OC)C1=O	inactive	–
CCCOc1ccc(C(=O)NC(=S)Nc2nc(C)c(C(=O)N(C)C)s2)cc1	inconclusive [inhibitor, partial curve, poor fit]	–
N/N=C1/c2ccccc2N[C@H]1OC(=O)Nc1ccccc1	–	inactive: -10.5% [at 13.5 µM]
COc1ccc(NS(=O)(=O)c2cc(NC(=O)c3ccco3)ccc2N2CCCCC2)cc1	inconclusive [inhibitor, single point]	–
COc1ccccc1Oc1ccc(Oc2ccccc2OC)cc1	inconclusive [inhibitor, single point]	–
CCn1c(COc2ccccc2C)nc2ccccc21	inconclusive [inhibitor, single point]	–
O=C(CN1CCCCC1)NC(=O)NCc1ccccc1	inactive	–
CN1CCN(CC(O)COc2ccc(C34CC5CC(CC(C5)C3)C4)cc2)CC1 (stereo unspecified)	inactive	–
NC(=O)C[n+]1cccc2ccccc21	inconclusive [inhibitor, single point]	–
CCc1ccc(N(CC)C(=O)c2ccc3c(Cl)c4c(nc3c2)CCC4)cc1	inconclusive [inhibitor, single point]	–
Cc1ccccc1Sc1c(C#N)c(-c2ccccc2)nn1C	inconclusive [inhibitor, partial curve]	–
CC/C(=N\NC(=O)c1cccnc1)c1ccc2c(c1)OCCO2	inactive	–

SMILES	Potency	activity, negative = inhibition
COc1ccc(NS(=O)(=O)c2ccc(S(=O)(=O)N3CCCC3)cc2)cc1	active: 1 µM	–
CCOC(=O)C1CCN(c2ncnc3c2[nH]c2cccc(OC)c23)CC1	inconclusive [inhibitor, partial curve]	–
CC(=O)NC(C(=O)NCC(N)=O)C(C)C (stereo unspecified) (Ac-[ξV]-Gly-NH2)	inconclusive [inhibitor, single point]	–
O=C(CCSCc1cccc(Cl)c1)NCCc1ccc(Cl)cc1	inconclusive [inhibitor, single point]	–
Cc1ccc2cc(C=O)c(N(C)C)nc2c1	inconclusive [inhibitor, single point]	–
COc1ccc(OC)c2c1sc(=NC(=O)c1cccc(N3C(=O)CCC3=O)c1)n2C	inconclusive [inhibitor, single point]	–
CCS(=O)(=O)N1CCC(C(=O)NCCC2=CCCCC2)CC1	inconclusive [inhibitor, single point]	–
CCOc1ccc(NC(=O)CCCc2cc(-c3ccc(OCC)cc3)on2)cc1	inactive	–
CCCCCC(=O)N1CCCCC1	inactive	–
O=C(COc1ncnc2scc(-c3ccc(F)cc3)c12)NCc1ccco1	inconclusive [inhibitor, single point]	–
CCOC(=O)C1CCCN(C(=O)c2cc3c(C)nc4ccccc4c3o2)C1 (stereo unspecified)	inactive	–
Cc1ccc(C)c(Cn2cnc3c(cnn3C(C)(C)C)c2=O)c1	inconclusive [inhibitor, single point]	–
CCOC(=O)c1cnc2ccc(OCC)cc2c1NCc1ccccc1	inconclusive [inhibitor, single point]	–
CCN=c1scc(-c2ccco2)n1/N=C/c1ccc(O)cc1	active: 20 µM	–
COCc1cc(C)nc(SCC(=O)Oc2ccccc2)c1C#N	inactive	–
Cc1ccc(-c2nn(CCC(=O)NN3CCOCC3)c(=O)c3ccccc23)cc1	inconclusive [inhibitor, single point]	–
COc1cc(NC(=S)NCCCO)c(OC)cc1Cl	inconclusive [inhibitor, single point]	–
CCCOc1ccc(C(=O)CCC(=O)OCC(=O)N2CC(=O)Nc3ccccc32)cc1	inconclusive [inhibitor, partial curve]	–
Cc1nn2c(NCCCN(C)C)c3c(nc2c1-c1ccccc1)CCC3	inconclusive [inhibitor, single point]	–
N/C(=N\OS(=O)(=O)c1ccc2ccccc2c1)c1ccncc1	inactive	–
COc1cc(OC)c2c(=O)c(-c3ccccc3)c(C)oc2c1OC	active: 14.1 µM	–
COc1ccc(CCNC(=O)CCn2c(=O)oc3ccccc32)cc1	inconclusive [inhibitor, single point]	–
CCOC(=O)Cn1c(=O)n(Cc2ccco2)c(=O)c2ccc(C(=O)NC3CCCC3)cc21	active: 7.94 µM	–
N#CC(C#N)=CNCCN1CCN(C=C(C#N)C#N)CC1	–	inactive: 8% [at 13.5 µM]

SMILES	Potency	activity, negative = inhibition
O=S(=O)(Nc1ccc2c(c1)OCCO2)c1ccc(Br)s1	inactive	–
Cc1cccc(NC(=O)C2CCCN2S(=O)(=O)c2ccc3c(c2)n(C)c(=O)c(=O)n3C)c1 (stereo unspecified)	inactive	–
Oc1cc2c(cc1C(c1ccc(Br)cc1)N1CCCC1)OCO2 (stereo unspecified)	active: 2 µM	–
Cc1ccc(NC(=O)COC(=O)c2cccc3c(=O)c(C)c(-c4ccccc4)oc23)cc1	inconclusive [inhibitor, single point]	–
CC(=O)c1ccc(NC(=O)CSc2nnc(Cc3cccn3C)n2-c2ccc(F)cc2)cc1	active: 12.6 µM	–
CC1(C)Cc2c(c(N3CCOCC3)nc3sc(-c4ccc(C(=O)O)o4)c(N)c23)CO1	inconclusive [inhibitor, partial curve]	–
COC(=O)C1=C(C(=O)c2ccccc2)C(c2cccs2)n2nnnc2N1 (stereo unspecified)	active: 22.4 µM	–
C/C(=N\Nc1ccc(C(F)(F)F)cn1)c1ccc(S(=O)(=O)NCc2ccco2)cc1	inactive	–
CCOC(=O)COn1c(=O)c(=O)n(O)c2ccccc21	inconclusive [inhibitor, single point]	–
Cc1cccc(C)c1NC(=O)COc1ccc2c(C)c(Cc3ccccc3)c(=O)oc2c1	inconclusive [inhibitor, partial curve]	–
CCc1nc2sc3c(O)cc(=O)[nH]c3c2cc1C	inconclusive [inhibitor, single point]	–
O=C(NCCCCc1ccccc1)C12CN(Cc3ccccc3)CC1C(c1cccc([N+](=O)[O-])c1)=NO2 (stereo unspecified)	inconclusive [inhibitor, partial curve]	–
CCC(CO)NCC(O)COCc1ccc2c(c1)OCO2 (stereo unspecified)	inactive	–
CCOc1ccc(NC(=S)NC(=O)/C=C/c2ccc(OC)cc2)c([N+](=O)[O-])c1	inconclusive [inhibitor, partial curve]	–
O=[N+]([O-])c1cc2c(cc1C=Nc1ccccc1)OCO2	inconclusive [inhibitor, partial curve]	–
CCc1ccc(-c2nc(NC(=O)c3ccc(OCC(=O)Nc4ccc(F)cc4)c(OC)c3)sc2C)cc1	inconclusive [inhibitor, single point]	–
O=S(=O)(Nc1ncnc2sc3c(c12)CCC3)c1ccc(Cl)s1	inconclusive [inhibitor, partial curve]	–
COc1ccc(C(=O)Nc2c(N)nc(SCC(=O)N3CCC(C)CC3)[nH]c2=O)cc1OC	inactive	–
O=C(Nc1cccc(-c2cn3cccnc3n2)c1)c1ccc2c(c1)OCO2	inconclusive [inhibitor, partial curve]	–
CC(=O)c1cccc(NC(=O)c2c(F)c(F)c(F)c(F)c2F)c1	inconclusive [inhibitor, single point]	–
CCOc1ccc(NC(=O)C(c2ccccn2)N(C(=O)CCl)c2ccc(OCC)cc2)cc1 (stereo unspecified)	active: 8.91 µM	–
O=C(C1=C[C@H](c2ccccc2)C[C@H](OCCCCO)O1)N1CCN(Cc2ccccc2)CC1	inconclusive [inhibitor, single point]	–
Cc1ccc(S(=O)(=O)n2nc(-c3ccco3)nc2N)cc1	inconclusive [inhibitor, single point]	–
